Results: the supplement of paper PMC3334620
The full ranking holds about 33,000 sequences; the median of “E-score (-0.5 to 0.5)” is about -0.054, and the highest 2% start at about 0.35. Some of the results follow.

The sequences below were run against T1, Stb5 (UniProt P38699) (assay: PBM E-score (8-mer binding enrichment) (E-score (-0.5 to 0.5)); higher = stronger / more preferred TF binding; most listed sequences are background and not binding sites). Conditions: protein concentration: 200 nM; construct: GST-full length.
T1 sequence: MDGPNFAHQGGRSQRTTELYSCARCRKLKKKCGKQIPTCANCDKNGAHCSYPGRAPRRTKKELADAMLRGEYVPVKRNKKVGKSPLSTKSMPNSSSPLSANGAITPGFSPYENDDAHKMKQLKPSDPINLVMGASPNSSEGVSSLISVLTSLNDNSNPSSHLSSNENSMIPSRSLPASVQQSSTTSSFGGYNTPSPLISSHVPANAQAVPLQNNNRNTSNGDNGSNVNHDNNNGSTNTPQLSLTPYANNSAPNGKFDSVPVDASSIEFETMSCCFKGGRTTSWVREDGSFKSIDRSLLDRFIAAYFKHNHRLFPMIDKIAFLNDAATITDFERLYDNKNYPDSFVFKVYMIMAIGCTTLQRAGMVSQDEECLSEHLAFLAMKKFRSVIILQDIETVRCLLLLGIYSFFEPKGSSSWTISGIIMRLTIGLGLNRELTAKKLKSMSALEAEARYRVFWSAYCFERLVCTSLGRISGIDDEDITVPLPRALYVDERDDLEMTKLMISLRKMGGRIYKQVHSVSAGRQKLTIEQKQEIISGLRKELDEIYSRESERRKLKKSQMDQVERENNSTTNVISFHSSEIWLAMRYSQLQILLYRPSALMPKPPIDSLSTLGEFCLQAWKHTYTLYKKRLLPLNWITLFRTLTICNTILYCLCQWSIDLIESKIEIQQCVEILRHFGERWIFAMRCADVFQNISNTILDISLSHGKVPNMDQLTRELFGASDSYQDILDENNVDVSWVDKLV
Procedure: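 Universal 'all 10-mer' protein binding microarrays (Agilent AMADID 015681) probed with GST-tagged S. cerevisiae TFs (full-length or DBD) made by in vitro transcription/translation (PURExpress), about 100-200 nM. Bound TF was detected with fluorescent anti-GST. Each ungapped 8-mer (which stands for itself and its reverse complement) is scored by the PBM enrichment score (E-score), a modified Wilcoxon-Mann-Whitney statistic from -0.5 to +0.5, computed with the Universal PBM Analysis Suite. Scale: above 0.35 generally sequence-specific binding.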

| Sequence | PBM E-score |
| --- | --- |
| ACAGCTTA | -0.289 |
| ACTATACA | -0.138 |
| TAATATGA | 0.213 |
| CGAGGGTA | 0.012 |
| TGATCCAA | -0.114 |
| AAGTGGCC | -0.175 |
| ATTGCGTA | -0.0853 |
| CATCCGCG | 0.192 |
| ATAGCTAT | -0.151 |
| AATGACGT | -0.172 |
| AAGTACTA | -0.0229 |
| CAATGAGC | -0.157 |
| AAGTCATT | -0.361 |
| AGAGGTAG | -0.0308 |
| TATAAAAA | 0.0224 |
| CGAGCCCA | -0.196 |
| ACCGCTAC | 0.395 |
| AGTCGCCC | -0.0584 |
| CGGCGTCC | 0.277 |
| GTAAAACA | -0.168 |
| AGTAGTTA | 0.0553 |
| CTCGAGAA | -0.178 |
| ATGCTAGG | -0.088 |
| CGCTATGA | 0.0568 |
| AGTCGGAT | 0.306 |

| Sequence | PBM E-score |
| --- | --- |
| CGGCATCA | 0.387 |
| GCTGGTAA | -0.0826 |
| GCTCCATA | -0.0544 |
| CGTGCTCC | -0.122 |
| ACCCCGGG | 0.392 |
| ATTATCGG | 0.327 |
| GGGAGTCA | -0.163 |
| GACAGAAC | 0.00835 |
| ACCCCATG | 0.029 |
| CTGCAAGA | -0.0254 |
| ATAACCAT | -0.167 |
| TTCCGGAA | 0.212 |
| CAAAGAAA | -0.125 |
| GACTCTCC | -0.0655 |
| AAATCCGT | 0.281 |
| GACTGACA | -0.125 |
| ATTCGGTG | 0.269 |
| AGAGTCCA | -0.268 |
| AAGCTACT | -0.277 |
| ACCTTGCG | 0.039 |
| CTACCGGC | 0.238 |
| CACAAAAA | 0.00822 |
| ATGTGCAA | -0.179 |
| CACTAGCC | -0.00479 |
| ATATGAAG | -0.0551 |

| Sequence | PBM E-score |
| --- | --- |
| GCTGGTTA | -0.142 |
| CATACCAG | -0.0529 |
| AAAGTTAG | -0.136 |
| ATGTCGCC | 0.189 |
| GCGCCCCA | -0.019 |
| AACAGCTC | -0.148 |
| AGGAAATG | -0.125 |
| TAAGTAAA | -0.0809 |
| ACGATTAT | 0.0316 |
| AGCAGGTG | -0.0873 |
| AACCGCCT | 0.0427 |
| AAGCTAAA | -0.0838 |
| CAGTTGCG | -0.0668 |
| ACAGTTTG | -0.267 |
| CGGTCACC | 0.0906 |
| ATTTTGAG | 0.05 |
| AGCGGGCA | 0.248 |
| CAAATGGA | 0.00904 |
| AGCCTATC | -0.0823 |
| CAAGCCAG | -0.302 |
| ACTGTACG | -0.0641 |
| AATCCACC | -0.0679 |
| ACACTGGT | -0.141 |
| ATAACGTG | -0.0491 |
| CCGTACAA | 0.129 |

| Sequence | PBM E-score |
| --- | --- |
| CGAGCCAG | 0.0317 |
| CCTGATGA | -0.277 |
| GACAACGC | -0.0522 |
| AAGAATCG | 0.214 |
| AGCGTCAG | -0.218 |
| ACTTCGTA | -0.229 |
| ACTTACCC | 0.0118 |
| AAGTGAGC | -0.32 |
| TAAGCCGA | 0.074 |
| CCCACACA | -0.187 |
| ACGACCTG | -0.184 |
| GGGGATGA | -0.0902 |
| GTAAGCTA | -0.0178 |
| ACTTCTGA | -0.166 |
| ATAAACCC | 0.373 |
| CAAACAAC | 0.0293 |
| ACTACCTC | -0.0145 |
| ACGTGCAG | -0.189 |
| CAATTGAA | -0.12 |
| GTTATGAA | 0.113 |
| CCGTTGCA | 0.171 |
| CGCTGAAG | -0.01 |
| ACCTACCG | 0.0519 |
| GAGTCATC | -0.211 |
| AACTCCTT | 0.119 |

| Sequence | PBM E-score |
| --- | --- |
| CTGGATGC | -0.0435 |
| ATCAATTG | -0.152 |
| GCCACCCA | -0.113 |
| ACCTCGCG | 0.12 |
| CTCTTTGA | -0.164 |
| ATGAAGGA | -0.0121 |
| GTAAGTAC | 0.0626 |
| CTTATGCA | -0.0947 |
| ACCAAATC | -0.0624 |
| AGATTACC | 0.135 |
| CTTCGGCA | 0.209 |
| AGGTTCTC | -0.139 |
| GCCTGCTA | -0.107 |
| AGTGAGGC | -0.1 |
| CCACCCAC | -0.0184 |
| AGCACGAA | -0.0658 |
| TCAAACGA | -0.149 |
| GACATATA | 0.183 |
| TACTGCGA | -0.0885 |
| CACGGACA | 0.211 |
| AGGCCCCT | -0.1 |
| ATTCATTC | -0.0144 |
| CATTTTAC | 0.0886 |
| AGACATCC | -0.0773 |
| AGCCATAA | -0.137 |

| Sequence | PBM E-score |
| --- | --- |
| GAGACTTA | -0.164 |
| CTCCATGA | -0.0472 |
| AAGCGTAA | -0.0172 |
| TAGTAACA | -0.138 |
| AAATTGTA | -0.134 |
| GCAGCTTA | -0.132 |
| CCCCAAGA | -0.155 |
| ACGAGTTA | -0.106 |
| ATTGTATG | -0.145 |
| CAGCCGTC | -0.00175 |
| AATGCCTC | -0.118 |
| CGCTATTC | 0.196 |
| GTCTTGTA | -0.145 |
| ATCTGGCC | 0.0703 |
| ATACCGCC | 0.434 |
| TAATTGCA | -0.127 |
| GTCTAGAC | -0.207 |
| CCTCCCAC | -0.0348 |
| TAATGGTA | 0.0811 |
| CTCATTCC | -0.0501 |
| ACATACCA | 0.0536 |
| GGTCGGGA | 0.325 |
| CCGGATCG | 0.22 |
| ACGTAACT | -0.117 |
| ATTGCGGG | 0.183 |

| Sequence | PBM E-score |
| --- | --- |
| AACGTTAT | 0.174 |
| AGTATTTG | -0.171 |
| GATGACGC | -0.0402 |
| AGAGCAAC | -0.181 |
| GAAAGACA | -0.0983 |
| CGCATGGC | 0.046 |
| CGGCAATC | 0.185 |
| AGTCACGA | -0.155 |
| CCGGAGGC | 0.131 |
| CTCTCACA | -0.138 |
| CGTTACTA | 0.0452 |
| CTGTGAGA | -0.266 |
| AAGCGCTC | 0.0272 |
| GTGTGCCA | -0.15 |
| ATTATCCG | 0.359 |
| AAGTCAAT | 0.0053 |
| ATTCCTAC | -0.0968 |
| AAGACCGA | 0.414 |
| AGCGCTAT | 0.128 |
| GCAGTTCA | -0.151 |
| CGTTCTGA | -0.179 |
| CCGGGTTA | 0.245 |
